# PubChem BioAssay AID1508623 (National Center for Advancing Translational Sciences (NCATS), 2021)
# Among all 48,000 compounds or so, about 450 (0.94%) were called active. Not shown: some 19% with an inconclusive outcome. Calls follow the shape of the dose curve; as a rule, active = well fitted inhibition curve with a large enough effect; inconclusive = small, poorly fitted or top-dose-only effect; inactive = no such curve, though single readings can be large or run the other way. This is one part of the list.
# Test: Primary qHTS for Identification of Small Molecule Inhibitors of Huntingtin Promoter Activity; also: nearly all actives have a fitted effect of over 50% in size
# Details: HEK293 HTT promoter firefly luciferase reporter (activity 0% = vehicle and -100% = no light), 24 h; series mostly up to 57.5 µM; activity change, negative = inhibition: at the top concentration
# Summary of the method: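 Firefly luciferase signal from promoter-reporter HEK293 cells was scaled between vehicle (0%) and zero RLU (-100%). Compounds were tested at final concentrations of up to 57.5 uM over 24 h at 37 degrees C. PTC124 at 50 uM final served as control inhibitor.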
row,Structure (SMILES),"activity change, negative = inhibition"
1,O=C(NCC(c1cccnc1)N1CCOCC1)C(=O)Nc1ccc(F)cc1 (stereo unspecified),inactive: 29.1%
2,Cn1c(SCc2cccc(F)c2)nc2c([nH]c3ccccc32)c1=O,inactive: -8.99%
3,CCCn1ccc2c(OCC(=O)Nc3ccccc3OCC)cccc2c1=O,inactive: -9.94%
4,COc1ccc(Cn2c(=O)[nH]c3cc(C(=O)N4CCN(c5ccccc5)CC4)ccc3c2=O)cc1,inactive: -5.07%
5,Cc1ccc(CNC(=O)CCC(=O)N2Cc3ccccc3Oc3ncccc32)cc1,inactive: -7.85%
6,COc1ccc(CCNC(=O)C2CCN(c3nc4ccccc4nc3C(F)(F)F)CC2)cc1OC,inactive: -2.98%
7,Cc1ccc(NC(=O)CN2C(=O)CSc3ccc(S(=O)(=O)N4CCCC4)cc32)c(C)c1,inactive: -17.9%
8,COc1ccc(NC(=O)C2=C(C)C(=O)OC23CCN(C(C)C)CC3)cc1Cl,inactive: -19.3%
9,Cc1ccccc1NC(=O)CSc1nc2ccc(NC(=O)c3ccccc3)cc2s1,inactive: -3.36%
10,CC(=O)OCc1cnc(C)c2oc(=O)c(C(=O)Nc3ccc(C)cc3Cl)cc12,inactive: 0.773%
11,COc1ccc(-c2coc3c2c(C)cc2oc(=O)c(C)c(C)c23)cc1,inactive: 1.86%
12,COc1ccccc1CNC(=O)c1ccc2c(c1)N(Cc1cc(C)ccc1C)C(=O)c1ccccc1S2,inactive: -18.9%
13,CCCCNC(=O)c1cc2c(=O)n3cccc(C)c3nc2s1,inactive: 8.63%
14,CCOc1ccc(NC(=O)Cn2cc(C(=O)c3ccc(F)cc3)c(=O)c3cc4c(cc32)OCCO4)cc1,inactive: -3.67%
15,COc1ccc(NC(=O)Cn2cnc3ccc(S(=O)(=O)N4CCC(C)CC4)cc3c2=O)cc1Cl,inactive: -12%
16,CC(C)(C)OC(=O)N1CCC(c2c(C(=O)NCCN3CCCC3)cnn2-c2ccc(Cl)cc2)CC1,inactive: -3.8%
17,CCOc1ccc(/C=C/c2nc(C#N)c(NC3CCCCC3)o2)cc1,inactive: 0.934%
18,CC(=O)c1cc2c(cc1N/C(=N/S(=O)(=O)c1ccccc1)c1ccc(Cl)cc1)OCO2,inactive: -8.6%
19,Cc1cc(C)cc(C(=O)Nc2c(C(=O)Nc3ccccc3F)oc3ccccc23)c1,inactive: -26.2%
20,COc1ccccc1-c1nnc(SCC(N)=O)o1,inactive: 0%
21,CCN(CC)CCNC(=O)c1ccc(-c2nc(CS(=O)(=O)c3ccc(C)cc3)c(C)o2)cc1,inactive: -21.6% [at 11.5 µM]
22,CC(C)c1ccc(NC(c2nnc(-c3ccccc3)o2)c2ccc(F)cc2Cl)cc1 (stereo unspecified),inactive: -27.9%
23,CCOc1ccc(OCc2ccc(C(=O)Nc3cc(OC)c(OC)c(OC)c3)o2)cc1,inactive: -13.8%
24,Cc1ccc(C)c(NC(=O)N(C)CCc2c(C)nn(C)c2C)c1,inactive: 4.71%
25,COc1ccc(CCNS(=O)(=O)c2cc(-c3cc(C)no3)ccc2OC)cc1OC,inactive: -16.6%
26,Cc1ccc(N2CC(C(=O)NCCS(=O)(=O)N3CCN(c4ccccc4)CC3)CC2=O)cc1C (stereo unspecified),inactive: -5.8%
